Reference: the supplement of paper PMC11417369
± gives the standard deviation of the averaged measurements. This is one part of the list.

System: PfAP2-I AP2 domain 3 (GST-tagged)
Experiment: gcPBM binding intensity (ln(normalized median fluorescence intensity)); higher = stronger DNA binding
Method in brief: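 Binding of GST-tagged P. falciparum DNA-binding domains, expressed in E. coli and used at about 25 μg on average, was carried out for 1 h in 1× PBS containing 1% milk, 0.2 mg/ml BSA, 0.5% salmon testes DNA and 0.03% Triton X-100. The target was an Agilent 4 × 180k array of primer-extended double-stranded 36-bp intergenic genomic probes plus negative controls, read with Alexa488 anti-GST antibody at 488 nm. Binding intensity is the highest Masliner-normalised natural-log median intensity across replicate spots of either probe orientation.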

Point of comparison: “CGGCACATTCTATATACACACATATAAATATATACA [CACACA_site566]”, “gcPBM binding intensity (ln)” value 7.88 ± 0.42. Against it:
- TACTTTCACATTAAATGTACGTATAGTTTCATTCTT [XGTACX_site8528] — within error, 8.02 ± 0.3
- ATATTAAAAATATATACACACATATATATAAATATA [CACACA_site2257] — within error, 7.51 ± 0.37
- ATAAATATGGAGCACACACACATAAACATACAGATA [CACACA_site4395] — within error, 8.34 ± 0.33
- TATATTTAAGTACATAAATAAGCCCATTTACATACA [CACACA_negctrl_site1224] — within error, 7.84 ± 0.14
- TTTGGAGAATTCATAGTGCATTTATTTATTGTTAAT — higher, 10.5 ± 0.47
- TAAGTGATCGCATAATGTACATATTATTTATTATTT [XGTACX_site3061] — within error, 7.64 ± 0.28
- CATACATACATACATACACACATATATAAATATATG [CACACA_site7028] — higher, 8.94 ± 0.57
- GGAAGGATATAACATACACACACACCCATATATATA [CACACA_site9376] — within error, 8.46 ± 0.73
- TACATTTAAAAAAAAACACACATATTTATATTTATA [CACACA_site7236] — within error, 7.28 ± 0.36
- TTTCCTGGTCAAGGGGTTACGGTTACGTCCTCTTGC [CACACA_negctrl_site856] — within error, 7.38 ± 0.81
- CATATACATAGACACACACACACATAAATAAATATA [CACACA_site6749] — the same, 7.88 ± 0.26
- TTATGTATTTATTTATGTACTAATTGTATGCATATT [XGTACX_site6436] — within error, 7.82 ± 0.53
- ATACTTTATAAATACTAAAGTGTATTTTGTAATATA [CACACA_negctrl_site1710] — within error, 7.58 ± 0.49
- ATTTGTATATATAATTGTACGCATATTCTATACGAT [XGTACX_site7367] — within error, 7.96 ± 0.12
- TGTTCAGTATGGCACACACACAACAAAATAAAAAAA [CACACA_site4368] — higher, 8.71 ± 0.16
- GGTTTACCCTATAAATGTACTCATAAATTATATATA [XGTACX_site5771] — within error, 7.75 ± 0.43
- ATACGAAATAGAAACACACATACAATAAATAAATAT [CACACA_site2017] — within error, 7.8 ± 0.69
- AGTAGCAAATATTAAGTGCATATTATATAATGTGTA [GTGCAC_site9546] — higher, 9.04 ± 0.16
- TTTTTTTTTTTTTTTTGTACATATACATATATATAT [XGTACX_site1981] — higher, 8.96 ± 0.028
- ATAAATATGGCAGTACGTACGTATATTCATATTCAT [XGTACX_site8042] — within error, 7.93 ± 0.47
- ATTAAAAAAAAAAAAAAAAAACAAAAAAAAAAAAAA [CACACA_negctrl_site1187] — within error, 7.96 ± 0.93
- TATATTATAATATTCACACACTAACGTAAATCATTG [CACACA_site7318] — within error, 7.63 ± 0.45
- AAAAAATATATATATATATATATGTAATATTTTTTT [XGTACX_negctrl_site439] — within error, 7.76 ± 0.46
- TGGCAAAATAGGCACACACACATATACAGATATATT [CACACA_site4727] — within error, 8.06 ± 0.49
- TCAATGAAATTAATATGTACATATTTTTATATAGTA [XGTACX_site7955] — within error, 7.66 ± 0.34
- AAAACTATAAAAATTTTACACACTGTTTTTAAATAA [CACACA_site3667] — within error, 7.77 ± 0.62
- GTTCTTTCAAATTATACACACCAAAAAAAAAAAAAA [CACACA_site5660] — within error, 8.04 ± 0.29
- TGATCAAGTAAGAAAAGTACAAAAAAAGTAAAAAAT [XGTACX_site6529] — within error, 8 ± 0.58
- GATATGTTTTATTATGTTGATGATAACAGGTAGTTT [CACACA_negctrl_site356] — within error, 7.67 ± 0.59
- ATAAGTTTTTATTTTCTGCACTGTCGAATAATAGTT — higher, 9.11 ± 0.41
- ATGGATTATTTTTAAACATGCAGTAGTGATGAAAAA [TGCATGCA_site346] — within error, 8.36 ± 0.53
- AAAAAAAACATACATACACACACATAAATATATATA [CACACA_site8864] — within error, 8.19 ± 0.61
- TGCGGAAATAAGTGCACACATAGATATATGTATTTT [CACACA_site3689] — higher, 10.2 ± 0.26
- ATATATATTAATAATGCATGTGATATAAATTAATAT [TGCATGCA_site930] — within error, 8.11 ± 0.66
- ATATTATATATGTATAGTACATATTATAAGAAAAAT [XGTACX_site3457] — within error, 7.79 ± 0.45
- ATCTATATCTATAATACACACATCATAAAATATGTA [CACACA_site7230] — within error, 8.14 ± 0.41
- TACAATTCGTAATACACACACATATAAATAAATATT [CACACA_site7720] — within error, 7.99 ± 0.14
- ATATAAAATATGTATGAGGAATAAAATTAAAAAAAA [XGTACX_negctrl_site173] — within error, 7.51 ± 0.8
- TTTTTTTTGAAGAATACATGCATATTTTCTATATTC [TGCATGCA_site43] — within error, 8.36 ± 0.83
- TATTAAATATATATTACATGCAAAAAAAAAAAACAA [TGCATGCA_site705] — within error, 7.97 ± 0.52
- ACAATATGCAAAAAGTGTACACATTCATTTATATAA [XGTACX_site1061] — within error, 8.34 ± 0.32
- AATATACAAATAAAGGTGCGAGATATTTTTACTTTT — within error, 8.72 ± 0.43
- ATAAAAAAAGATGAACGTACATATATTTTAAAAATC [XGTACX_site5950] — within error, 7.79 ± 0.53
- GTAAATATTTGTTGGGTGCTATCAATTATTTCAAAG — higher, 8.7 ± 0.29
- TATATAAACATCGGTAGTACACACATTCATGTATTT [XGTACX_site6443] — within error, 8.02 ± 0.28
- GGATCATTTTTAAAGGAACACACAAAAAAAATTATA [CACACA_site8381] — within error, 7.85 ± 0.27
- ATGATATGGATAAATACACACAATATAATAATGGGT [CACACA_site4905] — the same, 7.88 ± 0.66
- AAAAAAAACAGACACACACACATTCAATATAAAACA [CACACA_site41] — within error, 7.79 ± 0.42
- ATATCTTATATTATCACACACACACCCACAAAACAG [CACACA_site1464] — higher, 9.12 ± 0.52
- ATTTTATATATGTGTTGTACGGTGAACATTTTGATA [XGTACX_site6538] — within error, 7.85 ± 0.47
- ATATGTATAAATATAAATATATATATATATATATAT [CACACA_negctrl_site705] — higher, 9.3 ± 0.47
- ACGTTAATATCTACAAGTACCCACATTAACAGGAAA [XGTACX_site2616] — within error, 8.11 ± 0.4
- TATTTTCATTATACTACTTCGAAGATACCCTTTTTT [CACACA_negctrl_site256] — within error, 7.75 ± 0.71
- AGATAAATATATTGTAGTACAGGAGCATAAATATAT [XGTACX_site8267] — within error, 8.47 ± 0.45
- GTTCTTCCTTGTAAATGTACAAATACAAAATGTTCC [XGTACX_site6738] — within error, 8.19 ± 0.59
- TATAAACATTAAAGGTGTACAATTTAATTTCAATTT [XGTACX_site2944] — within error, 7.82 ± 0.23
